In paper PMC6003868 (ACS chemical biology, 2018):

Legend:
[1] = target: AprA ΨGNAT-MT2 didomain C651S (Moorea bouillonii PNG5-198); assay: SEC
FabD = FabD (Moorena bouillonii, UniProt A0A1U7NA76); details: acceptor AprA holo-ACP (also AprI ACP)
[2] = target: AprA ΨGNAT-MT2 didomain (Moorea bouillonii PNG5-198); assay: SEC

How did the stoichiometry N [1] turn out when “AprA ΨGNAT-MT2 didomain C651S (domain or fragment)” was run?
Its stoichiometry N is 2.

With `CC(C)(COP(=O)(O)OP(=O)(O)OC[C@H]1O[C@@H](n2cnc3c(N)ncnc32)[C@H](O)[C@@H]1OP(=O)(O)O)[C@@H](O)C(=O)NCCC(=O)NCCSC(=O)CC(=O)O` [Mal-CoA] as the molecule, how does the “Ppant ejection mass spectrometry assay” value (FabD) read?
The value was “Incubation of FabD with AprA holo-ACP led to rapid formation of Mal-ACP”.

For “AprA ΨGNAT-MT2 didomain (domain or fragment)”, which stoichiometry N [2] is on record?
Its stoichiometry N is 2.
